The target of the assay is M2 protein expressed on A/HK/1/68 infected MDCK cells (influenza A virus A/HK/1/68). Kind of assay: cell-based ELISA, half-saturating antibody concentration. The conditions noted are these: remark: other sources report otherwise. A general note: In an ELISA, binding on a coated surface is turned into a signal by an enzyme label.
M2 protein expressed on A/HK/1/68 infected MDCK cells (influenza A virus A/HK/1/68), sequence (Q77IM6 whole entry): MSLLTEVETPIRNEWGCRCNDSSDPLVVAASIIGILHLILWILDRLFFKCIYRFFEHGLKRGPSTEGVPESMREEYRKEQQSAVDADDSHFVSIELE

B1: human anti-M2 monoclonal antibody N547 (antibody)
chain 1: [about 100 residues cut from this listing]HLRYFDWLSDYWGQGTLVTVSS
chain 2: QSVLTQPPSMSAAPGQKVTISCSGSSSNIGNNYISWYQQLPGTAPKVLIYDNNKRPSGIPDRFSGSKSGTSATLGITGLQTGDEADYYCGSWDSSLSAGVFGTGTKVTVLG
Take B1: the Kd is 1.22 nM.

The term Kd denotes the free concentration of one partner at which half of the binding sites on the other are occupied at equilibrium, for simple one-to-one binding.

Source of the values: patent US20090196872A1.
